Drawing on the antibiotic and cytotoxicity screens of Wong et al. (2023), this text covers cytotoxicity call and growth inhibition call for 29 molecules.

Molecules are shown by their SMILES. The list shows a part of the results.

In assay [1] the test system is HSkMC (human skeletal muscle cells). The assay is described as follows: cytotoxicity call (relative viability < 0.9). Conditions: 10 µM.
The subject of assay [2] is HepG2. The assay is described as follows: cytotoxicity call (relative viability < 0.9). Conditions: 10 µM.
The subject of assay [3] is S. aureus RN4220. As to the kind of experiment: growth inhibition call (relative growth <= 0.2). Conditions: 50 µM.

Regarding `COc1ccc([Si](C)(C)[C@H]2[C@H](CC(=O)N(CCO)Cc3ccccc3)O[C@@]3(C(=O)N(Cc4cccc(N5CCC5=O)c4)c4ccccc43)[C@@H]2C)cc1`, the cytotoxicity call in assay [1] and in assay [2] was “inactive” throughout. The growth inhibition call in assay [3] was “inactive”.
Take `C[C@@H]1CCCCO[C@@H](CN(C)C(=O)Nc2ccc3c(c2)OCO3)[C@@H](C)CN([C@@H](C)CO)C(=O)c2cc(NC(=O)Nc3cccc4ccccc34)ccc2O1`: the cytotoxicity call in assay [1] and in assay [2] was “inactive” in each case. Besides, the growth inhibition call in assay [3] is “inactive”.
As to `C[C@@H]1CN([C@@H](C)CO)C(=O)c2cc(NC(=O)CCCN(C)C)ccc2O[C@@H](C)CCCCO[C@H]1CN(C)C(=O)Nc1cccc2ccccc12`, the cytotoxicity call in assay [1] and in assay [2] was “inactive” throughout. Further, in assay [3], the growth inhibition call was “inactive”.
In the case of `CO[C@@H]1CN(C)C(=O)c2ccc(NS(=O)(=O)CC(F)(F)F)cc2OC[C@@H](C)N(C(=O)c2ccc3c(c2)OCO3)C[C@@H]1C`, the cytotoxicity call in assay [1] and in assay [2] was “inactive” each time. Moreover, in assay [3], the growth inhibition call is “inactive”.
For `OCCNC(=S)Nc1ccccc1`, the cytotoxicity call in assay [1] and in assay [2] was “inactive” in each case. Besides, the growth inhibition call in assay [3] is “inactive”.
With `Cc1ccc(S(=O)(=O)N(C)C[C@H]2Oc3c(NC(=O)C4CC4)cccc3C(=O)N([C@@H](C)CO)C[C@@H]2C)cc1`, the cytotoxicity call in assay [1] and in assay [2] was “inactive” each time. Besides, the growth inhibition call in assay [3] is “inactive”.
Consider `COc1ccc(NC(=O)N(C)C[C@@H]2Oc3ccc(NS(=O)(=O)c4c(C)noc4C)cc3C(=O)N([C@@H](C)CO)C[C@@H]2C)cc1`, for which, in assay [1], the cytotoxicity call is “inactive”. In addition, the cytotoxicity call in assay [2] is “active”. The growth inhibition call in assay [3] is “inactive”.
With `Cc1ccc(S(=O)(=O)N(C)C[C@@H]2Oc3ccc(NS(=O)(=O)c4cn(C)cn4)cc3C(=O)N([C@H](C)CO)C[C@H]2C)cc1`, the cytotoxicity call in assay [1] and in assay [2] was “inactive” throughout. Moreover, in assay [3], the growth inhibition call was “inactive”.
With `Cc1noc(C)c1NC(=O)N(C)C[C@@H]1Oc2ccc(NS(=O)(=O)c3cn(C)cn3)cc2CC(=O)N([C@@H](C)CO)C[C@@H]1C`, the cytotoxicity call in assay [1] and in assay [2] was “inactive” throughout. Besides, the growth inhibition call in assay [3] is “inactive”.
On to `C[C@H](CO)N1C[C@H](C)[C@H](CN(C)S(=O)(=O)c2cccs2)Oc2ccc(NC(=O)CCN3CCOCC3)cc2C1=O`, for which the cytotoxicity call in assay [1] and in assay [2] was “inactive” throughout. Moreover, in assay [3], the growth inhibition call is “inactive”.
For `C[C@@H]1CN([C@H](C)CO)C(=O)Cc2cc(NC(=O)CCCCCC(=O)Nc3ccccc3N)ccc2O[C@H]1CN(C)S(=O)(=O)c1cn(C)cn1`, the cytotoxicity call in assay [1] and in assay [2] was “inactive” in each case. The growth inhibition call in assay [3] is “inactive”.
Consider `CC1CC2C3CCC4=CC(=O)C=CC4(C)C3(F)C(O)CC2(C)C1C(=O)CO` (configuration not stated), for which the cytotoxicity call in assay [1] and in assay [2] was “inactive” throughout. Moreover, the growth inhibition call in assay [3] was “inactive”.
`CC(C)NC(=O)N(C)C[C@@H]1Oc2cc(C#Cc3ccccn3)ccc2S(=O)(=O)N([C@H](C)CO)C[C@@H]1C`: the cytotoxicity call in assay [1] and in assay [2] was “inactive” each time. Besides, the growth inhibition call in assay [3] was “inactive”.
As to `C[C@@H]1CN([C@@H](C)CO)C(=O)c2cccc(NC(=O)C3CCOCC3)c2O[C@H]1CN(C)S(=O)(=O)c1ccc(F)cc1`, the cytotoxicity call in assay [1] and in assay [2] was “inactive” throughout. Besides, the growth inhibition call in assay [3] was “inactive”.
`C[C@@H]1CCCCO[C@@H](CN(C)C(=O)Nc2ccccc2)[C@H](C)CN([C@H](C)CO)C(=O)c2cc(NC(=O)CCC(F)(F)F)ccc2O1`: the cytotoxicity call in assay [1] and in assay [2] was “inactive” throughout. Moreover, in assay [3], the growth inhibition call is “inactive”.
For the molecule `CCOC(=O)c1c(CN2CCN(c3ccccc3C)CC2)n(-c2ccccc2)c2cc(Br)c(O)cc12`, the cytotoxicity call in assay [1] was “active”. Also, the cytotoxicity call in assay [2] was “inactive”. Also, the growth inhibition call in assay [3] was “inactive”.
With `Cl.NC(COP(=O)(O)O)C(=O)O` (configuration not stated), the cytotoxicity call in assay [1] and in assay [2] was “inactive” in each case. Also, the growth inhibition call in assay [3] is “inactive”.
For the molecule `NS(=O)(=O)c1ccc(NC(=S)NCCN2CCOCC2)cc1`, the cytotoxicity call in assay [1] and in assay [2] was “inactive” in each case. Besides, the growth inhibition call in assay [3] was “inactive”.
For the molecule `C=CC[C@H](CC(=O)NCCO)C(=O)N[C@H](COC(=O)[C@H](CC=C)CC(=O)OC(C)(C)C)Cc1ccccc1`, the cytotoxicity call in assay [1] and in assay [2] was “inactive” in each case. For the same molecule, the growth inhibition call in assay [3] is “inactive”.
As for `COc1cccc(S(=O)(=O)N(C)C[C@@H]2Oc3cc(C#CCC(C)C)ccc3S(=O)(=O)N([C@H](C)CO)C[C@@H]2C)c1`, the cytotoxicity call in assay [1] and in assay [2] was “inactive” in each case. Besides, the growth inhibition call in assay [3] is “inactive”.
Turning to `COc1ccc(S(=O)(=O)N[C@@H]2C=C[C@H](CC(=O)NCCc3ccncc3)O[C@@H]2CO)cc1`, the cytotoxicity call in assay [1] and in assay [2] was “inactive” throughout. The growth inhibition call in assay [3] was “inactive”.
`CN(C)CC(=O)N1[C@@H]2c3cccc(=O)n3C[C@H]1[C@H](CO)[C@H]2C(=O)NCc1ccccc1`: the cytotoxicity call in assay [1] and in assay [2] was “inactive” in each case. The growth inhibition call in assay [3] is “inactive”.
Take `C[C@@H]1CN([C@H](C)CO)C(=O)Cc2cc(NC(=O)CCCN(C)C)ccc2O[C@H]1CN(C)S(=O)(=O)c1ccccc1`: the cytotoxicity call in assay [1] and in assay [2] was “inactive” throughout. The growth inhibition call in assay [3] was “inactive”.
On to `CC[C@@H](O)CNNC(=O)OC(C)(C)C`, for which the cytotoxicity call in assay [1] and in assay [2] was “inactive” in each case. In addition, the growth inhibition call in assay [3] was “inactive”.
`CN(C)C(=O)C[C@H]1CC[C@H]2[C@@H](COC[C@H](O)CN2S(=O)(=O)c2ccccc2)O1`: the cytotoxicity call in assay [1] and in assay [2] was “inactive” each time. The growth inhibition call in assay [3] is “inactive”.
Regarding `C[C@@H]1CN([C@@H](C)CO)C(=O)c2cc(NC(=O)Nc3cccc4ccccc34)ccc2O[C@H]1CN(C)S(=O)(=O)c1ccc(F)cc1`, the cytotoxicity call in assay [1] and in assay [2] was “inactive” throughout. The growth inhibition call in assay [3] was “inactive”.
In the case of `COC[C@@H]1c2nnn(C)c2CCN1S(=O)(=O)c1cn(C)cn1`, the cytotoxicity call in assay [1] and in assay [2] was “inactive” throughout. For the same molecule, in assay [3], the growth inhibition call was “inactive”.
For the molecule `O=C(C[C@@H]1C[C@@H]2c3cc(NC(=O)Cc4ccncc4)ccc3O[C@@H]2[C@H](CO)O1)NCCN1CCCCC1`, the cytotoxicity call in assay [1] and in assay [2] was “inactive” throughout. The growth inhibition call in assay [3] is “inactive”.
On to `C[C@@H]1CN([C@@H](C)CO)C(=O)Cc2cc(NC(=O)Cc3ccccc3)ccc2O[C@H]1CN(C)C(=O)Nc1cccc2ccccc12`, for which the cytotoxicity call in assay [1] and in assay [2] was “inactive” throughout. Further, the growth inhibition call in assay [3] is “inactive”.
